This is one part of the list. The list includes weakly bound sequences.
target: T1, MBP-FoxP3dN (UniProt Q99JB6); assay: PD-seq (MBP pull-down with sequencing); conditions: 20 mM Tris-HCl pH 7.5, 100 mM NaCl, 1.5 mM MgCl2, 0.4 uM protein, 0.1 uM dsDNA library, 30 min, room temperature, amylose pull-down; high values mean tight binding; double strand, one strand shown
T1 sequence: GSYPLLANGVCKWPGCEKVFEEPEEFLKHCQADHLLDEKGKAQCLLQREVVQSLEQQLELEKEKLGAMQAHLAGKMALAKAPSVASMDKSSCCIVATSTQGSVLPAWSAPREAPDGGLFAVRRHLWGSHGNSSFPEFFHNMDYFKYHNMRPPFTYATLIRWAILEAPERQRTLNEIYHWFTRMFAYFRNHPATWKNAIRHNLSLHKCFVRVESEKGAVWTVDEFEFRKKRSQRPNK

| Sequence | binding signal (RPM ratio (pull-down/input)) |
| --- | --- |
| GATGATTGTTCTCCCAGCTGATGAATTGATTTATTCGAGTAAACAAATTTTCCTAATCTTTCTGTTCAAGCGCCATCTAC | 2.58 |
| GATGATTGTTCTCCCAGCTGATGAATTTTTGACGTCGAGTAAACAAATTTTCCTAATCTTTCTGTTCAAGCGCCATCTAC | 0.3 |
| GATGATTGTTCTCCCAGCTGATGAATTGATTCCGTCGAGTAAACAAATTTTCCTAATCTTTCTGTTCAAGCGCCATCTAC | 0.334 |
| GATGATTGTTCTCCCAGCTGATGAATTCCATGGATCGAGTAAACAAATTTTCCTAATCTTTCTGTTCAAGCGCCATCTAC | 0.268 |
| GATGATTGTTCTCCCAGCTGATGAATTAATCCAATCGAGTAAACAAATTTTCCTAATCTTTCTGTTCAAGCGCCATCTAC | 0.273 |
| GATGATTGTTCTCCCAGCTGATGAATTGCACACCTCGAGTAAACAAATTTTCCTAATCTTTCTGTTCAAGCGCCATCTAC | 0.903 |
| GATGATTGTTCTCCCAGCTGATGAATTCTAGCCATCGAGTAAACAAATTTTCCTAATCTTTCTGTTCAAGCGCCATCTAC | 1.35 |
| GATGATTGTTCTCCCAGCTGATGAATTCATGCTATCGAGTAAACAAATTTTCCTAATCTTTCTGTTCAAGCGCCATCTAC | 0.992 |
| GATGATTGTTCTCCCAGCTGATGAATTGTGCTGATCGAGTAAACAAATTTTCCTAATCTTTCTGTTCAAGCGCCATCTAC | 2 |
| GATGATTGTTCTCCCAGCTGATGAATTGAACCACTCGAGTAAACAAATTTTCCTAATCTTTCTGTTCAAGCGCCATCTAC | 0.461 |
| GATGATTGTTCTCCCAGCTGATGAATTATGACGTTCGAGTAAACAAATTTTCCTAATCTTTCTGTTCAAGCGCCATCTAC | 0.813 |
| GATGATTGTTCTCCCAGCTGATGAATTGTAGAGTTCGAGTAAACAAATTTTCCTAATCTTTCTGTTCAAGCGCCATCTAC | 0.526 |
| GATGATTGTTCTCCCAGCTGATGAATTTGGACCATCGAGTAAACAAATTTTCCTAATCTTTCTGTTCAAGCGCCATCTAC | 0.601 |
| GATGATTGTTCTCCCAGCTGATGAATTTTAAGGGTCGAGTAAACAAATTTTCCTAATCTTTCTGTTCAAGCGCCATCTAC | 0.237 |
| GATGATTGTTCTCCCAGCTGATGAATTATATTGGTCGAGTAAACAAATTTTCCTAATCTTTCTGTTCAAGCGCCATCTAC | 3.47 |
| GATGATTGTTCTCCCAGCTGATGAATTTCTACGTTCGAGTAAACAAATTTTCCTAATCTTTCTGTTCAAGCGCCATCTAC | 0.287 |
| GATGATTGTTCTCCCAGCTGATGAATTTGAGAAGTCGAGTAAACAAATTTTCCTAATCTTTCTGTTCAAGCGCCATCTAC | 0.184 |
| GATGATTGTTCTCCCAGCTGATGAATTTCGCAGATCGAGTAAACAAATTTTCCTAATCTTTCTGTTCAAGCGCCATCTAC | 0.391 |
